Molecules are shown by their SMILES. Inconclusive results and toxic doses are left out. Certain results were filed several times, with different values. This list holds those alone. The source may hold further records. The records of an entry repeat one measurement across runs, samples, wells, individuals or studies.

For this test, the system named is L1210 leukemia ip in BDF1 mice, survival T/C. Description: NCI In Vivo Anticancer Drug Screen. Data for tumor model L1210 Leukemia (intraperitoneal) in B6D2F1 (BDF1) mice. The settings on record: endpoint: mean survival time, higher = longer survival.
Where [1] appears, read: dose: 200.0 mg/kg/injection, schedule: Q01DX009 (ip), vehicle: saline.

Take `O=C(Nc1ccc(C2=NCCN2)cc1)c1cc(C(=O)Nc2ccc(C3=NCCN3)cc2)ncn1`: the T/C (dose: 15.0 mg/kg/injection, schedule: Q01DX015 (ip), vehicle: methylcellulose (MC)) is 120 % of control and 162 % of control.

Turning to `COc1cc([C@@H]2c3cc4c(cc3C[C@H]3COC(=O)[C@@H]32)OCO4)cc(OC)c1OC`, the T/C (dose: 100.0 mg/kg/injection, schedule: Q01DX001 (ip), vehicle: saline) was 121 % of control and 151 % of control.

Regarding `CS(=O)(=O)OCCN(CCOS(C)(=O)=O)c1ccc(C=Nc2ccc3ccccc3c2)cc1`, for the setting “dose: 80.0 mg/kg/injection, schedule: Q04DX003 (ip), vehicle: Klucel (hydroxypropylcellulose) (HPC)”, the T/C is 124 % of control and 152 % of control.

In the case of `C[SH+]c1ccccc1N=Cc1ccccn1.C[SH+]c1ccccc1N=Cc1ccccn1.[Ni+2].[O-][Cl+3]([O-])([O-])[O-]`, the T/C (dose: 200.0 mg/kg/injection, schedule: Q01DX001 (ip), vehicle: saline) is 95 % of control, 102 % of control, 175 % of control.

For `O=C(O)C1C(C(=O)O)C2(Cl)C(Cl)=C(Cl)C1(Cl)C2(Cl)Cl.[Co]` (stereo not drawn), the T/C (dose: 50.0 mg/kg/injection, schedule: Q01DX009 (ip), vehicle: saline sonified) is 113 % of control and 176 % of control.

As for `N=C(N)Cc1ccc(NC(=O)c2ccc(C(=O)Nc3ccc(CC(=N)N)cc3)cc2)cc1`, for the setting “dose: 75.0 mg/kg/injection, schedule: Q01DX001 (ip), vehicle: carboxymethylcellulose (CMC)”, the T/C is 121 % of control and 162 % of control.

Take `CCN(CCNc1ccc(C)c2sc3ccccc3c(=O)c12)CC(C)(C)O`: under setting [1], the T/C was 124 % of control and 162 % of control.

For the compound `O=NN(CCCl)C(=O)NC1CCS(=O)(=O)CC1`, the T/C (dose: 25.0 mg/kg/injection, schedule: Q01DX001 (ip), vehicle: carboxymethylcellulose (CMC)) was 111 % of control and 166 % of control.

Turning to `Nc1nc(N)c2nc(CNc3ccc(C(=O)NC(CCC(=O)O)C(=O)O)cc3)cnc2n1` (stereo not drawn), the T/C (dose: 0.05 mg/kg/injection, schedule: Q01DX Z (ip), vehicle: saline) is 120 % of control and 151 % of control; the T/C (dose: 0.12 mg/kg/injection, schedule: Q01DX Z (ip), vehicle: saline) is 93 % of control, 114 % of control, 174 % of control; the T/C (dose: 0.2 mg/kg/injection, schedule: Q01DX010 (ip), vehicle: other) was 113 % of control and 161 % of control.

Turning to `CCOC(=O)C(=CNc1ccc(OC)cc1[N+](=O)[O-])C(=O)OCC`, the T/C (dose: 50.0 mg/kg/injection, schedule: Q01DX009 (ip), vehicle: saline with Tween-80) was 87 % of control and 177 % of control.

With `CCCCCCC(C)OC(=O)CCCc1ccc(N(CCCl)CCCl)cc1` (stereo not drawn), under setting [1], the T/C was 106 % of control and 158 % of control.

The values above are taken from PubChem BioAssay AID248 (DTP/NCI, 2004).
